Some of the results follow.
The sequences below were run on PfHDP1 homeodomain (GST-tagged) (assay: gcPBM binding intensity (ln(normalized median fluorescence intensity)); higher = stronger DNA binding).
Outline: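 Using an Agilent 4 × 180k array, primer-extended double-stranded 36-bp intergenic genomic probes and negative controls were exposed for 1 h to GST-fused P. falciparum DNA-binding domains expressed in E. coli. Binding was carried out in 1× PBS with 1% milk, 0.2 mg/ml BSA, 0.5% salmon testes DNA and 0.03% Triton X-100, and protein was detected with Alexa488 anti-GST antibody and a 488 nm scan. Binding intensity is the highest Masliner-normalised natural-log median intensity across replicate spots of either probe orientation.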

Row | Sequence | gcPBM binding intensity (ln)
1 | CATACATAGAAACACACACACACACCCACCCACAAA [CACACA_site494] | 7.38
2 | TTTAATTTGTTATACACACACAAAAAAAATTATAAA [CACACA_site3937] | 6.61
3 | ATTCTATATTTAAATGCATGCACTTTCTATTTTTTT [TGCATGCA_site435] | 8.5
4 | TTTTATTTATCTAATTGTACTCATTCTTTTTTGATG [XGTACX_site2876] | 6.37
5 | GACACTTTGAAGGGTACATGCAGAAAAAAAAAAAAA [TGCATGCA_site89] | 6.27
6 | GCTAAAAGTATATGCACACACATATAGATGCACATA [CACACA_site6868] | 10.7
7 | TACTAATATAATAAAAGTACTTAAATAAATATATGT [XGTACX_site2220] | 6.63
8 | TCTTTTTAAATATATACACACCGTGTCTACAGATAC [CACACA_site5784] | 6.53
9 | ACATGATGTCATAAATGTACGCACACATACATAAAC [XGTACX_site1198] | 6.78
10 | GAACATTTCACACAAAAAAAAAAAAATATATATATA [TGCATGCA_negctrl_site518] | 8.79
11 | TTTGCCCAAAAAGGTACACACCACAATGTACATAAA [CACACA_site4599] | 6.72
12 | TCATATATGGGTAGTATACACACTGTATATTTAGGA [CACACA_site2844] | 6.55
13 | TTTTATTTAAATACACGTACATAATGTATATATATA [XGTACX_site7160] | 7.4
14 | GTATAAAAGTTATATACACACAACAGAATTACATAT [CACACA_site6212] | 6.67
15 | TTTGAAAAAAATTAATGTACATTTGAAATGACATAT [XGTACX_site3902] | 6.01
16 | ATACCTTCTTTTATGTTTAATTAATATACTTTTTAT [CACACA_negctrl_site1557] | 7.36
17 | AAAAAAAAAAAACACACACACACAAATATATAAAAA [CACACA_site1171] | 6.77
18 | AATACATACATACATACACACATATAAATATATTAT [CACACA_site7650] | 6.96
19 | TGTTTGTAATTATGTATGCACTTTTTTGTATGTGTG [GTGCAC_site9668] | 7.52
20 | ACATATCTATCGTTTTTAATTGTATATTATTATAAC [TGCATGCA_negctrl_site144] | 6.4
21 | TAATGAGCGCTTGTAGTGCATTATATTCAAAAATAT | 9.19
22 | ATATTCTTGTTTAATACACACTGTAGTATTATATAT [CACACA_site4400] | 7.1
23 | AGAAAAAAACAACATGCACACGCACCCACAAAAAAA [CACACA_site7908] | 8.3

Row | Sequence | gcPBM binding intensity (ln)
24 | TCCCACTGTTATATTGAAAAAAAAAAAAAAAAAAAA [TGCATGCA_negctrl_site288] | 6.48
25 | TCTTGTATATGTTAAAGTACACAACAATATATATAT [XGTACX_site6814] | 8.34
26 | AGATAAAATATATATGCACACACATATATATTTCAT [CACACA_site9183] | 9.16
27 | ATTCTATATAAATATACACACATATATAAAATACAT [CACACA_site2293] | 6.73
28 | TTAATAATTAATATATGTACTGATAAATAACATATA [XGTACX_site3966] | 6.35
29 | ATAATTATTTAATATATATATATTATTTCGAATGTT [GTGCAC_negctrl_site688] | 6.98
30 | TAATTATTTAAAAAGAGTACATTTTTTTTTTTTTTT [XGTACX_site1060] | 6.18
31 | TTTTCAAAAATATACACACACATAAATATCTGTATA [CACACA_site4586] | 6.57
32 | TAAATAAAAAAAAATCGTACATATATTTTATATATG [XGTACX_site3293] | 5.91
33 | TCGTAATAATAGTTGAGTACGCACTAATATGTCAAT [XGTACX_site643] | 6.9
34 | TATTTACATTTTAGTAGTACATATATGTATATATAT [XGTACX_site6839] | 6.86
35 | AATTATATGCTTAATACGCACACGGGAAAAAAAAAA [CACACA_site1376] | 6.61
36 | CTTAAATTTAAGTTCACACATATTGGTCATTTATAT [CACACA_site5006] | 6.53
37 | CACTAAAATAGACACACACACACACGGATATAAATA [CACACA_site7873] | 6.8
38 | TTTATTTGTAACGGTTGTACTTGTATATCATTATGA [XGTACX_site4281] | 6.58
39 | CCACATTAAAAAAAAACACACATATATTATAGATAT [CACACA_site6662] | 6.54
40 | AATGTACGTTTTATAACACACACACTAATAAAAAAA [CACACA_site9286] | 6.68
41 | ATCTTCAAAAATATTAGTACACATGTATCATGAATT [XGTACX_site3872] | 6.61
42 | TAGATACATACACGCACACACATATATATATATATA [CACACA_site12] | 9.42
43 | TACTAAGAATTAATATAACAAAATAAAAAAAAAAAA [XGTACX_negctrl_site346] | 6.13
44 | ATACAGATATATAATACACACATAAATGTAACATTT [CACACA_site5864] | 6.95
45 | AAAATTAAAAATAACACACACATATATATATTTATA [CACACA_site2776] | 6.54
46 | GATATTTTTTTCGAAAGTACAAAAAAAAATATTTCC [XGTACX_site4389] | 6.16

Row | Sequence | gcPBM binding intensity (ln)
47 | ATATATATACCAAGTAGTACATTCTACAACTAATGT [XGTACX_site8653] | 6.48
48 | TGTATGTATAAAAACGCATGTATGTATTTTACAATA [TGCATGCA_site767] | 6.33
49 | ATGTATATATATATATGTACTAATTAGTAGTTTACG [XGTACX_site6272] | 7.03
50 | ACAAAATGTAGATATTGTACATATTGTAGATATTGT [XGTACX_site7619] | 5.93
51 | TTTGACAAATTATTGTGTACACAATATTATTATATA [XGTACX_site8320] | 6.75
52 | AATTAAAAAGAAAAAAGTACATATTTTTTTAAAAAA [XGTACX_site7384] | 6.42
53 | AAATATATATTTCTTAGTACATATGTATTTTTTTTT [XGTACX_site938] | 6.48
54 | ATATATATATATATGTGTACTAATAAGGTTAAATAA [XGTACX_site1535] | 9.09
55 | AATAAAAAAGAATATACACACATAAATATAAAATAT [CACACA_site683] | 6.74
56 | TACAGACAGAAATGCACACACATATTTATATTTATA [CACACA_site7139] | 9.88
57 | CTTCCTTAGGAATGTACACACATATATAATATGTTG [CACACA_site461] | 6.38
58 | TTTACAGAAAGTTACATACACACTAATATTTACACC [CACACA_site1009] | 6.9
59 | ATGAAGAAGTGTAAATGTACATTTTATGTAGAACAA [XGTACX_site6925] | 6.85
60 | ATTTAAGATTTAATCACACACATATAGATTATAGAC [CACACA_site7383] | 6.44
61 | TTATTTTTTTTTTATTGTACTAGGAAAATTTCGATA [XGTACX_site702] | 6.13
62 | TTTATATGTATTAAGTGTACACATATAATGTGTTTG [XGTACX_site6629] | 6.46
63 | TATAAGAGGATATATACACACAAAAATATGTACAGT [CACACA_site6885] | 6.52
64 | ATTATATATATATAAACACACAAATATTTTTATATA [CACACA_site5005] | 6.5
65 | TAATATTAATCCTAGTGTACATTAATTTATATGTAT [XGTACX_site3583] | 6.4
66 | ACCTATATAAGTTATACACACAAATATAGATATATA [CACACA_site7356] | 6.69
67 | CCAACATAGAGGGGCACACACATATATACCTAAAAA [CACACA_site5088] | 6.64
68 | CTGTGTTTTGGTTGTACACACGCTACATTCTATATT [CACACA_site2698] | 7.6
69 | AAAATAATTGTTTACACACCCATTTGTAATTTTACC [CACACA_site3614] | 6.32

Row | Sequence | gcPBM binding intensity (ln)
70 | AGATTATAAAATTCTACACACATATATACCTATATA [CACACA_site5848] | 6.37
71 | ACCATACAGAATAATGCATGTTCCTTTTTATGAATA [TGCATGCA_site995] | 6.67
72 | TATACTTGTAAATGCACACATAAGATGCGACTAATG [CACACA_site2118] | 9.37
73 | AAAAAAATAAAGGATATACACACTAATTATATATAT [CACACA_site2812] | 6.6
74 | AATAAATATATATACACACCCATATATATATATATA [CACACA_site2595] | 9.48
75 | GCGTATACTTGTAACGGTACACAGGAAATTATAGAA [XGTACX_site507] | 6.68
76 | AAGATACACCTTTTTAGTACTTACATTTTTTTTATT [XGTACX_site1373] | 6.55
77 | TCTTTGTTTTTTTTTTTTAAACAAAATCATCAAAGG [XGTACX_negctrl_site192] | 6.09
78 | TATATATATGGACACACACACACCAAAGCGTAGCGC [CACACA_site4209] | 6.71
79 | TTAATGAAATATTATACACACAAAAAAATAATTTTA [CACACA_site4231] | 6.43
80 | TAATGTTGTTTCTGAGGTACACAATTTTTTTTATTT [XGTACX_site8035] | 6.15
81 | TACACTTTTTTTTGTACACACTAAAAAGATTAACAA [CACACA_site6037] | 6.54
82 | TTTTTTTTTTGATGAGCACACATGTTTTTTCTTAGA [CACACA_site3171] | 6.92
83 | AAAAAATATTTATGTTCACACATTTTATATATGATA [CACACA_site4821] | 6.46
84 | AAATATTTTTAAAGAAGTACTTTTTAAAAATAATCT [XGTACX_site4897] | 6.32
85 | TAATTTTCATATTTCTGTACATATATTATAAATATA [XGTACX_site3480] | 6.45
86 | AGAAAAAAAAAAAAAAAACACACGGTACATTCAAAG [CACACA_site2] | 6.24
87 | TAATATATATATATTACACACACGTATTATTAAATA [CACACA_site432] | 6.81
88 | TGTATGTATAATTGAGTGCACAGAAAAAAAAAAGAA | 10.6
89 | GTAGACTGAAACCACACACACATATATAAATATATT [CACACA_site6433] | 6.78
